# In the supplement of paper PMC8728848:
# The list shows a part of the results.
# B1: Cohesin-hLangerin (Homo sapiens) (protein)
# chain: LDDLDAVRIKVDTVNAKPGDTVRIPVRFSGIPSKGIANCDFVYSYDPNVLEIIEIEPGDIIVDPNPDKSFDTAVYPDRKIIVFLFAEDSGTGAYAITKDGVFATIVAKVKEGAPNGLSVIKFVEVGGFANNDLVEQKTQFFDGGANVGDTTEPATPTTPVTTPTTTDDLDAASYPRFMGTISDVKTNVQLLKGRVDNISTLDSEIKKNSDGMEAAGVQIQMVNESLGYVRSQFLKLKTSVEKANAQIQILTRSWEEVSTLNAQIPELKSDLEKASALNTKIRALQGSLENMSKLLKRQNDILQVVSQGWKYFKGNFYYFSLIPKTWYSAEQFCVSRNSHLTSVTSESEQEFLYKTAGGLIYWIGLTKAGMEGDWSWVDDTPFNKVQSARFWIPGEPNNAGNNEHCGNIKAPSLQAWNDAPCDKTFLFICKRPYVPSEPHHHHHH
# What was measured:
# Assay in all cases: glycan array binding signal (z-score within array); higher = stronger binding
# Conditions in all cases: glycan notation: IUPAC condensed, linker removed
# [1] = molecular target: Fuc(a1-2)Gal(b1-4)GlcNAc(b1-3)Gal(b1-4)GlcNAc(b1-3)Gal(b1-4)GlcNAc
# In short: (§1)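 The binding signal is a Z-score computed within each array and averaged over linkers. Arrays of the same protein sequence at different concentrations or buffers were also averaged together. Data originate from 3228 arrays in the Consortium for Functional Glycomics database, kept only where the protein sequence was available.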
# [2] = molecular target: Fuc(a1-2)Gal(b1-4)GlcNAc(b1-3)GalNAc
# In short: as §1
# [3] = molecular target: Fuc(a1-2)Gal(b1-4)GlcNAc(b1-3)[Fuc(a1-2)Gal(b1-4)GlcNAc(b1-6)]GalNAc
# In short: as §1
# [4] = molecular target: Fuc(a1-2)Gal(b1-4)GlcNAc(b1-3)[Fuc(a1-3)[Gal(b1-4)]GlcNAc(b1-6)]Gal(b1-4)Glc
# In short: as §1
# [5] = molecular target: Fuc(a1-2)Gal(b1-4)GlcNAc(b1-6)GalNAc
# In short: as §1
# [6] = molecular target: Fuc(a1-2)Gal(b1-4)GlcNAc6S
# In short: as §1
# [7] = molecular target: Fuc(a1-2)Gal(b1-4)[Fuc(a1-3)]GlcNAc
# In short: as §1
# [8] = molecular target: Fuc(a1-2)Gal(b1-4)[Fuc(a1-3)]GlcNAc(b1-2)Man(a1-3)[Fuc(a1-2)Gal(b1-4)[Fuc(a1-3)]GlcNAc(b1-2)Man(a1-6)]Man(b1-4)GlcNAc(b1-4)[Fuc(a1-6)]GlcNAc
# In short: as §1
# [9] = molecular target: Fuc(a1-2)Gal(b1-4)[Fuc(a1-3)]GlcNAc(b1-2)[Fuc(a1-2)Gal(b1-4)[Fuc(a1-3)]GlcNAc(b1-4)]Man(a1-3)[Fuc(a1-2)Gal(b1-4)[Fuc(a1-3)]GlcNAc(b1-2)Man(a1-6)]Man(b1-4)GlcNAc(b1-4)GlcNAc
# In short: as §1
# [10] = molecular target: Fuc(a1-2)Gal(b1-4)[Fuc(a1-3)]GlcNAc(b1-3)Gal(b1-4)[Fuc(a1-3)]GlcNAc
# In short: as §1
# [11] = molecular target: Fuc(a1-2)Gal(b1-4)[Fuc(a1-3)]GlcNAc(b1-3)Gal(b1-4)[Fuc(a1-3)]GlcNAc(b1-3)Gal(b1-4)[Fuc(a1-3)]GlcNAc
# In short: as §1
# [12] = molecular target: Fuc(a1-2)Gal(b1-4)[Fuc(a1-3)]GlcNAc(b1-3)GalNAc
# In short: as §1
# [13] = molecular target: Fuc(a1-2)Gal(b1-4)[Fuc(a1-3)]GlcNAc(b1-3)[Neu5Ac(a2-6)Gal(b1-4)GlcNAc(b1-6)]Gal(b1-4)Glc
# In short: as §1
# [14] = molecular target: Fuc(a1-2)Gal3S(b1-4)GlcNAc
# In short: as §1
# [15] = molecular target: Fuc(a1-2)Gal6S(b1-3)GlcNAc
# In short: as §1
# [16] = molecular target: Fuc(a1-2)Gal6S(b1-3)GlcNAc6S
# In short: as §1
# [17] = molecular target: Fuc(a1-2)Gal6S(b1-4)Glc
# In short: as §1
# [18] = molecular target: Fuc(a1-2)Gal6S(b1-4)Glc6S
# In short: as §1
# [19] = molecular target: Fuc(a1-2)[Gal(a1-3)]Gal
# In short: as §1
# [20] = molecular target: Fuc(a1-2)[Gal(a1-3)]Gal(b1-3)GalNAc
# In short: as §1
# [21] = molecular target: Fuc(a1-2)[Gal(a1-3)]Gal(b1-3)GalNAc(b1-3)Gal(a1-4)Gal(b1-4)Glc
# In short: as §1
# [22] = molecular target: Fuc(a1-2)[Gal(a1-3)]Gal(b1-3)GlcNAc
# In short: as §1
# [23] = molecular target: Fuc(a1-2)[Gal(a1-3)]Gal(b1-3)GlcNAc(b1-2)Man(a1-3)[Fuc(a1-2)[Gal(a1-3)]Gal(b1-3)GlcNAc(b1-2)Man(a1-6)]Man(b1-4)GlcNAc(b1-4)GlcNAc
# In short: as §1
# [24] = molecular target: Fuc(a1-2)[Gal(a1-3)]Gal(b1-3)GlcNAc(b1-2)Man(a1-3)[Fuc(a1-2)[Gal(a1-3)]Gal(b1-3)GlcNAc(b1-2)Man(a1-6)]Man(b1-4)GlcNAc(b1-4)[Fuc(a1-6)]GlcNAc
# In short: as §1
# [25] = molecular target: Fuc(a1-2)[Gal(a1-3)]Gal(b1-3)GlcNAc(b1-3)GalNAc
# In short: as §1
# [26] = molecular target: Fuc(a1-2)[Gal(a1-3)]Gal(b1-3)GlcNAc(b1-6)GalNAc
# In short: as §1
# [27] = molecular target: Fuc(a1-2)[Gal(a1-3)]Gal(b1-4)Glc
# In short: as §1
# [28] = molecular target: Fuc(a1-2)[Gal(a1-3)]Gal(b1-4)GlcNAc
# In short: as §1
# [29] = molecular target: Fuc(a1-2)[Gal(a1-3)]Gal(b1-4)GlcNAc(b1-2)Man
# In short: as §1
# [30] = molecular target: Fuc(a1-2)[Gal(a1-3)]Gal(b1-4)GlcNAc(b1-2)Man(a1-3)[Fuc(a1-2)[Gal(a1-3)]Gal(b1-4)GlcNAc(b1-2)Man(a1-6)]Man(b1-4)GlcNAc(b1-4)GlcNAc
# In short: as §1
binder,measurement,setting,value
B1,glycan array binding signal (z-score),[1],0.552
same,glycan array binding signal (z-score),[2],-0.294
same,glycan array binding signal (z-score),[3],-0.344
same,glycan array binding signal (z-score),[4],-0.446
same,glycan array binding signal (z-score),[5],-0.095
same,glycan array binding signal (z-score),[6],-0.352
same,glycan array binding signal (z-score),[7],-0.276
same,glycan array binding signal (z-score),[8],0.376
same,glycan array binding signal (z-score),[9],0.939
same,glycan array binding signal (z-score),[10],-0.41
same,glycan array binding signal (z-score),[11],-0.145
same,glycan array binding signal (z-score),[12],-0.38
same,glycan array binding signal (z-score),[13],-0.441
same,glycan array binding signal (z-score),[14],2.43
same,glycan array binding signal (z-score),[15],-0.321
same,glycan array binding signal (z-score),[16],1.01
same,glycan array binding signal (z-score),[17],-0.399
same,glycan array binding signal (z-score),[18],-0.388
same,glycan array binding signal (z-score),[19],1.79
same,glycan array binding signal (z-score),[20],-0.369
same,glycan array binding signal (z-score),[21],-0.417
same,glycan array binding signal (z-score),[22],0.016
same,glycan array binding signal (z-score),[23],2.29
same,glycan array binding signal (z-score),[24],3.97
same,glycan array binding signal (z-score),[25],-0.381
same,glycan array binding signal (z-score),[26],-0.238
same,glycan array binding signal (z-score),[27],0.032
same,glycan array binding signal (z-score),[28],-0.394
same,glycan array binding signal (z-score),[29],-0.228
same,glycan array binding signal (z-score),[30],-0.058
